Laboratory results taken from PMC10673843 (2023).

Assays:
Test in all cases: SPR; apparent KD, dimeric Fc-fused target
UU-40 = target: UU-40
UU-8 = target: UU-8
UU-46 = target: UU-46
UU-84 = target: UU-84
UU-14 = target: UU-14
UU-22 = target: UU-22
UU-88 = target: UU-88
UU-86 = target: UU-86
UU-34 = target: UU-34
UU-44 = target: UU-44
UU-10 = target: UU-10

Kd (UU-40): 0.8 nM
Kd (UU-8): 3.3 nM
Kd (UU-46): 3.9 nM
Kd (UU-84): 7 nM
Kd (UU-14): 6.1 nM
Kd (UU-22): 3.8 nM
Kd (UU-88): 0.8 nM
Kd (UU-86): 3.2 nM
Kd (UU-34): 1.1 nM
Kd (UU-44): 3.8 nM
Kd (UU-10): 1.1 nM
B1: CD44 (isoform 4), Fc-fused (Fc fusion)
chain: [left out - about 200 residues]ATSTSSNTISAGWEPNEENEDERDRHLSFSGSGIDDDEDFISSTISTTPRAFDHTKQNQDWTQWNPSHSNPEVLLQTTTRMTDVDRNGTTAYEGNWNPEAHPPLIHHEHHEEEETPHSTSTIQATPSSTTEETATQKEQWFGNRWHEGYRQTPKEDSHSTTGTAAASAHTSHPMQGRTTPSPEDSSWTDFFNPISHPMGRGHQAGRRMDMDSSHSITLQPTANPNTGLVEDLDRTGPLSMTTQQSNSQSFSTSHEGLEEDKDHPTTSTLTSSNRNDVTGGRRDPNHSEGSTTLLEGYTSHYPHTKESRTFIPVTSAKTGSFGVTAVTVGDSNSNVNRSLSGDQDTFHPSGGSHTTHGSESDGHSHGSQEGGANTTSGPIRTPQIPE
